Experimental findings from ChEMBL document CHEMBL4888484, “Replenishing the malaria drug discovery pipeline: Screening and hit evaluation of the MMV Hit Generation Library 1 (HGL1) against asexual blood stage Plasmodium falciparum ,using a nano luciferase reporter read-out” (2022) are described below.

Hit rate of the full screen: of about 150,000 compounds, about 540 (0.36%) showed an effect of 50% or more. The list shows a part of the results.

This experiment has as its system Plasmodium falciparum. The experiment can be described thus: Primary screen in NF54 nanoGlo assay, in single point, at 2uM, 72h; a lower Z score goes with more inhibition. In kind it is functional, Erythrocyte. The note with it: timepoint 72 hour.
As to `CCCc1ncncc1-c1nc(C(C)C)nn1CCO`, the “% Inhibition” value was -12% and the Z score is given as 2.15.
On the same counts, the results for `Cc1ccc(C(=O)N(CC(F)(F)F)c2nc(C)cs2)cn1` are -12% and 2.35.
Take `COC(=O)[C@@H](NC(=O)c1[nH]nc(C2CC2)c1Cl)C(C)(C)C`: the “% Inhibition” value was 28% and the Z score is recorded as -3.14.
Regarding `COc1ccc(NC(=O)c2cc(C)n3nc(-c4ccccn4)cc3n2)cc1Cl`, the “% Inhibition” value came to 1% and the Z score is -0.08.
For `O=C(NCc1ccc(S(=O)(=O)N2CCCCCC2)s1)c1ccc2c(c1)OCO2` the same measures were -13% and 1.29.
On to `COCCn1cnnc1CCNC(=O)[C@H](O)c1ccccc1Cl`, for which the “% Inhibition” value is recorded as -4% and the Z score is 0.82.
Turning to `Cc1ccc([C@H](C)NCc2ncoc2C(C)C)o1`, the “% Inhibition” value is reported as 0% and the Z score came out at 0.02.
With `N#Cc1nc(-c2ccc(OCc3ccccc3Cl)cc2)oc1N1CCCCCC1`, the “% Inhibition” value is on record as -9% and the Z score was found to be 1.23.
With `CNC(=O)CCN(C)[C@@H](C)c1nc(C(C)C)no1`, the “% Inhibition” value is given as -14% and the Z score is recorded as 1.81.
Consider `CC(C)CCC[C@H](C)NC(=O)c1ccc(O)c(Cl)c1`, for which the “% Inhibition” value is given as -15% and the Z score turned out to be 1.35.
For `O[C@@]1(CNCc2ccccc2Cl)CCCN2CCCC[C@@H]21` the same measures were -13% and 1.93.
In the case of `C=C(C)COc1cccc(NC(=O)C(=O)NCc2nc(C)cs2)c1`, the “% Inhibition” value was -10% and the Z score was 1.27.
Take `Cc1c(C2c3ccccc3Oc3ccccc32)c(=O)n(-c2ccccc2)n1C`: the “% Inhibition” value worked out at 19% and the Z score was -3.81.
`Cc1ccccc1NC(=O)Cc1c(C)nc2nc(-c3cccs3)nn2c1C`: the “% Inhibition” value is recorded as -12% and the Z score came out at 1.35.
In the case of `Cc1ccc(CN(C)CC(=O)Nc2ccnn2C2CCCC2)o1`, the “% Inhibition” value was -3% and the Z score worked out at 0.5.
As for `CN(C)S(=O)(=O)c1ccc(C(=O)NC[C@H]2CCCN2c2ncccn2)cc1`, the “% Inhibition” value is listed as -25% and the Z score is 2.89.
Regarding `Cc1cccc(NC(=O)N2CCC(n3cnc4ccccc4c3=O)CC2)c1`, the “% Inhibition” value is listed as -11% and the Z score was 1.23.
On the same counts, the results for `CCNC(=O)N1CCN(c2nc(C)nc3[nH]ccc23)CC1` are -5% and 0.76.
For the molecule `Cc1ccc(-n2c(C)c(CNCc3ccccc3Cl)c(C(=O)O)c2C)cc1`, the “% Inhibition” value is recorded as -7% and the Z score is 0.93.
In the case of `CC(C)n1cncc1CN(Cc1ccc(F)cc1)C1CCOCC1`, the “% Inhibition” value is 15% and the Z score is given as -1.55.
Consider `CC1CCCN(C(=O)c2ncnc(O)c2Br)C1C` (stereo unspecified), for which the “% Inhibition” value was -5% and the Z score is reported as 0.83.
Consider `CC1CCCCN1C(C)CNS(=O)(=O)N1CCOCC1` (stereo unspecified), for which the “% Inhibition” value was found to be 0% and the Z score stood at 0.05.
Take `Cc1nc(CC(C)C)cc(C(=O)NCCCN2C[C@@H](C)O[C@@H](C)C2)n1`: the “% Inhibition” value came out at 6% and the Z score is -1.18.
For `Fc1cc(Br)ccc1CNc1nc(C2CC2)ns1`, the “% Inhibition” value is given as -4% and the Z score was 0.41.
With `CC(C)C[C@H]1NC(=O)c2cc(F)ccc2OCCn2cc(nn2)CCN(C(=O)c2ccc3c(c2)OCCO3)CCNC1=O`, the “% Inhibition” value is -8% and the Z score came to 1.03.
`COc1ncccc1N(C)C(=O)c1cn(C(C)(C)C)nn1`: the “% Inhibition” value was -14% and the Z score was found to be 3.04.
For `CC(C)(C(=O)NC[C@H](Cc1ccccc1Cl)C(N)=O)c1c[nH]cn1`, the “% Inhibition” value is reported as -3% and the Z score was 0.41.
On the same counts, the results for `CCN1CCN(C(C)(C)CNc2nc(C)c(C)cc2C(N)=O)CC1` are 1% and -0.23.
Take `CC[C@](O)(CCCO)CNC(=O)c1ccc(F)c(O)c1`: the “% Inhibition” value is listed as -20% and the Z score was 1.9.
With `CC(C)C(C)NC(=O)CCC1CCCO1` (stereo unspecified), the “% Inhibition” value is reported as -12% and the Z score is 1.29.
For `C[C@H]1CCOCCN1C(=O)NCCCCN(C)c1ccccc1` the same measures were -9% and 1.22.
For `COc1cc(S(=O)(=O)N2CCOCC2)cc(C(=O)Nc2ccc(Oc3ccccc3)cc2)c1OC`, the “% Inhibition” value was determined as 0% and the Z score is reported as -0.06.
`CN=C(NCc1cc2ccccc2o1)N[C@@H](C)c1ccccc1`: the “% Inhibition” value is given as 1% and the Z score was -0.15.
Take `COc1ccc(NC(=O)C2CCN(c3cc(C(F)(F)F)ncn3)CC2)cc1`: the “% Inhibition” value is on record as -10% and the Z score was 1.19.
For `CCN1CCO[C@H](CNC(=O)N[C@@H]2c3ccccc3C[C@@H]2F)[C@H]1c1ccccc1`, the “% Inhibition” value stood at 2% and the Z score is on record as -0.38.
On to `COc1ccc(-c2csc(N(c3ccc(OC)cc3)[C@@H](C)C(=O)N3CCCC3)n2)cc1`, for which the “% Inhibition” value is recorded as -10% and the Z score was determined as 1.5.
As to `O=C(NCCCN1CCOCC1)C1CCC1`, the “% Inhibition” value is recorded as -6% and the Z score is 1.03.
Consider `CC(Oc1ccc2c(c1)C(c1ccccc1)N(Cc1ccccc1F)CC2)C(=O)N(C)Cc1ccco1` (stereo unspecified), for which the “% Inhibition” value is on record as -12% and the Z score came to 1.14.
For `O=C(NCc1ccccc1)c1c(O)c2cnn(Cc3ccccc3)c2[nH]c1=O` the same measures were 0% and 0.04.
Consider `CCOC(=O)c1n[nH]cc1CNCc1cccnc1N(C)C`, for which the “% Inhibition” value was 4% and the Z score was -0.61.
As to `CCC(=O)N1CCC(OC2CCN(C(=O)COC)CC2)CC1`, the “% Inhibition” value is -14% and the Z score is recorded as 1.77.
`C[C@@H]1Oc2ccc(NC(=O)COc3ccccc3Cl)cc2NC1=O`: the “% Inhibition” value is reported as -10% and the Z score worked out at 1.69.
Consider `O=C(c1ccc(-c2ccc(C(=O)N3CCC(F)CC3)cc2)c(F)c1)C1CC1`, for which the “% Inhibition” value is recorded as -10% and the Z score is 1.63.

The % Inhibition is the relative decrease from the control value, in per cent.
